Assay results from PMC12136788.
The list shows a part of the results.

T1: UNK ZnF1-3 (human, UniProt Q9C0B0 31-174)
T1 sequence: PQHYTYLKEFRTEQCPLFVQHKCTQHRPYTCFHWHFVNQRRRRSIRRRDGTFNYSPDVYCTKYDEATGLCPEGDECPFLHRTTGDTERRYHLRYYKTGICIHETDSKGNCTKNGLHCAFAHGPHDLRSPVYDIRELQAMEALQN

B1: chr9:66219948:66219949:+_ENSMUSG00000038664_ENSMUST00000042824|mus_hu|FALSE|FALSE (ssRNA)
RNA: GGGAGUUCUACAGUCCGACGAUCCUGCUUCACCUUGCCUUUGUCAUGGUAUUUAUUAGAAAGUGCAUAAAAGACACGCUGGAGUACAAGCAGUCGUUUUCUAAGUGCCCCGGCAAAUGGGGAAUCUGAACAUACCAUCUUUGCCAACAGAGGAUUGAGCAUCA
B2: chr1:193054138:193054139:+_ENSG00000116747_ENST00000432079|hu_mus|FALSE|FALSE (ssRNA)
RNA: GGGAGUUCUACAGUCCGACGAUCUUAUACUCUGUAUCACACUUUCAGAACAAAGGUGUGAUUCAGUGAAGUAAAACACCACUAUUGUACAGUGUCUAUUAAAACGAAGUUCUCUACAGAGGAAGCUACAGUAUCCUGAAGACUCAACAGAGGAUUGAGCAUCA
B3: chr2:160775391:160775392:-_ENSMUSG00000057133_ENSMUST00000039782|mus_mus|FALSE|FALSE (ssRNA)
RNA: GGGAGUUCUACAGUCCGACGAUCGAUGAGUCCAGGAGACACUCCUGGGAUGAGAAAUGGGUUGAAAGCCACAGGACUACUAGUAGUUAUUGUGGGUUCUGACUGAUCAGAAAACGGACUAGGGCCAGGCUUGUCGUCUACCAGCAACAGAGGAUUGAGCAUCA
B4: 43513707_43515436_3362_CDS_ENSG00000052841_ENST00000039989|human|control|control (ssRNA)
RNA: GGGAGUUCUACAGUCCGACGAUCCUUCUUCAGCAUUAAGUGACACUGGAUGGUCUGGAUUCGGUUCUUGGCUGGGACAAACUCGGGCUGAAGCUUCAAUGUGGAUUCAUACCACACCAGUGCUUUUUCAAAUUCUUCCAUUGCCAACAGAGGAUUGAGCAUCA
B5: chr17:7477944:7477945:+_ENSG00000161960_ENST00000293831|hu_mus|FALSE|FALSE (ssRNA)
RNA: GGGAGUUCUACAGUCCGACGAUCAUAACCCUUGAUACAAGGAAGAAUAGCUCGCUGCUGGAUGGCAGAGGGCUUCUCAAAACCAUAGGCAUAAAUACCACGGAGGAGGGACUCUGAGAGAUUCAUGUCAUCAAAGCUAUCCACCAACAGAGGAUUGAGCAUCA
B6: chr17:74040031:74040032:-_ENSG00000167881_ENST00000307877|hu_hu|FALSE|FALSE (ssRNA)
RNA: GGGAGUUCUACAGUCCGACGAUCAUACAGGACAAGGGCUUCGCUCCACUUCUUCACCAGCACAUAGGACUGAGCAAUGAAAAAACACCUGUAAGCUUUGAACACCAGAGUCUUGAGGCCUAUCUCUUUCUGGAAGGCUUUGUCCAACAGAGGAUUGAGCAUCA
B7: chr2:47387409:47387410:-_ENSG00000143933_ENST00000272298|hu_hu|FALSE|FALSE (ssRNA)
RNA: GGGAGUUCUACAGUCCGACGAUCAUACAACUUGGAAUGGAUUUUGAGGCAAAUUGUGCCAUAAGCAGAUUUUAAGUGGCUAAACAAAGUUUAAAAAGCAAGUAACAAUAAAAGAAAAUGUUUCUGGUACAGGACCAGCAGUACCAACAGAGGAUUGAGCAUCA
B8: chr2:202488911:202488912:-_ENSG00000155755_ENST00000286196|hu_mus|hu_hu_hu_mus_False|88_108 (ssRNA)
RNA: GGGAGUUCUACAGUCCGACGAUCAUUUAACAUUUUUUCAUAAUCUCAGAGAUGUUUUCAGCAUUAUGUAACAAAAGCUCAAUUGUAAAUACAUGUAUCUUAUAAAAAUACACUUAAAAACACGAGUGGGGAGCGCAGGCGCCACAACAGAGGAUUGAGCAUCA
B9: 57741037_57741157_616_CDS_ENSG00000053770_ENST00000261558|human|control|control (ssRNA)
RNA: GGGAGUUCUACAGUCCGACGAUCACCUCCUAUCAGGAGUCCAUAAAUGGAUGUUUUAUUGAUGCGUGAACAGCUAUCACGACUCUCAACGAAGUCUUUAUCAUCAUCCAAUAAUCUAAGUUCAAAGAGCAGUGCUUUAAGAAACAACAGAGGAUUGAGCAUCA
B10: chr5:17772112:17772113:-_ENSMUSG00000057614_ENSMUST00000074694|mus_hu|FALSE|FALSE (ssRNA)
RNA: GGGAGUUCUACAGUCCGACGAUCGUAUAUCCUCAGAAAUCUGAAAUUUUAGUUUUUCAAACCAAAUCUAACGUGGAAUCUAAUGUAAAAUUAAAUUAUUUUAUUUUCUUAAAGUAGGAAAAAUCAAAAUGCAUACAAUGUUUACAACAGAGGAUUGAGCAUCA
B11: chr12:110929880:110929881:-_ENSG00000111237_ENST00000549970|hu_hu|FALSE|FALSE (ssRNA)
RNA: GGGAGUUCUACAGUCCGACGAUCUUCGAUUCGUUCUACUUUCACAUCAUCUCCAAUUAGCUGAUACACAUAGGUGACCACUGUAGAAGCCUGGAUAUCCAUCAACACAAAUGAUGGAAUAAUGUUUGUUUCCAAGGCAUUAUACAACAGAGGAUUGAGCAUCA
B12: chr7:150069161:150069162:+_ENSG00000214022_ENST00000425389|hu_mus|FALSE|FALSE (ssRNA)
RNA: GGGAGUUCUACAGUCCGACGAUCCUCGGUGCAUGGGUAGGGCUUCUCGCCGGUAUGUAUGCGCCGGUGCGAGGUCAGGUAGGGCUUGUUGGUGAAACGCUUCCCGCACUCUGGGCACUGGUGUGGUCGCUCACCAGUGUGCACCAACAGAGGAUUGAGCAUCA
B13: chr9:5785663:5785664:-_ENSG00000099219_ENST00000339450|hu_hu|FALSE|FALSE (ssRNA)
RNA: GGGAGUUCUACAGUCCGACGAUCGAGACAAGCAGCUUCAAGGACGUUUUCUCCGGCAAUGCAUACUUACUGUGCUCUUUCUAUUCAGACAGAUCCACAGACCACCUUUCAAGAGCAUUCCUCUCUCAUUUCCUCCAUCACCCACAACAGAGGAUUGAGCAUCA
B14: chr12:493273:493274:-_ENSG00000073614_ENST00000399788|hu_mus|hu_hu_hu_mus_False|28_88 (ssRNA)
RNA: GGGAGUUCUACAGUCCGACGAUCUUUUCUCUCCACCACAGGGAUCUUCAGAGUAGAUCCUUGAAGUUCCCAAAAUUUUGCCAGUUGAUCCAAGAAGUCCAAUCUUACUCUGGUCAUUGCCUCAAGUUCAUUCAGGCGCUGGACCAACAGAGGAUUGAGCAUCA
B15: chr10:1038518:1038519:+_ENSG00000107937_ENST00000545048|hu_hu|FALSE|FALSE (ssRNA)
RNA: GGGAGUUCUACAGUCCGACGAUCAAGUCUAUCAUGGUAAUUCUGUUGAGUAAAUUUGACUUUUCUCAUGUAAAAAUGUCUAAUGCGAUGUAUUUGGUAAUGUUUAUGAAUAACGGUUGGAGUCUUUCGUUGAGUCUUCGACAACAACAGAGGAUUGAGCAUCA
B16: 79254388_79254508_2281_CDS_ENSMUSG00000020716_ENSMUST00000071325|mouse|control|control (ssRNA)
RNA: GGGAGUUCUACAGUCCGACGAUCUCGAAUAUCUGCUUCUUCACAGAGGUGGCGGAAACAGGACAUAGCAACCAGAACAGCUUCAGUGUCAGGAUUCCACAGAAACAUGUAUAAGGCCACUUCUAGCUUGGUCUGGGCUUGUCGCAACAGAGGAUUGAGCAUCA
B17: 120361156_120364552_1330_CDS_ENSMUSG00000064302_ENSMUST00000049404|mouse|control|control (ssRNA)
RNA: GGGAGUUCUACAGUCCGACGAUCGGACUGUGGCAGUCCUUUCUUACUGAGGUCUGCCCUCACACGUUCACCUACAUGUCUAUAAAUCUCCACCAGACUGUUUAUUGCUGCGUCUCGAACCUGGCUGUUGGGAUCUCCCAGUAGCAACAGAGGAUUGAGCAUCA
B18: chr5:68498363:68498364:+_ENSG00000153044_ENST00000283006|hu_hu|motif|central (ssRNA)
RNA: GGGAGUUCUACAGUCCGACGAUCUUUUUCCUCUAAAUCCCAAGAUUCCUGCUGUGAUUUCAUUAUUAAUUUAUUUAGCUCGGAUAGGUGUUUCAUGUUAUCCAUGAGCACACUAGACUGUCUGCUAAUUUUCUCCAGGUUUUUCAACAGAGGAUUGAGCAUCA
B19: 110841348_110841468_127_CDS_ENSG00000196510_ENST00000455511|human|control|control (ssRNA)
RNA: GGGAGUUCUACAGUCCGACGAUCUGUAAGUAACAAGCUGCUGAGGAGCCGCACGUUGGAGUGCAGCCCCGCGGCCGCCAUGUCCCGCACGUGGUCUAUCACAUUCAUCCUGCUCUGCAAAGCCGCGGGCAGCGGCGGCAGCACCAACAGAGGAUUGAGCAUCA
B20: 77698130_77698250_3958_3pUTR_ENSMUSG00000025427_ENSMUST00000026494|mouse|control|control (ssRNA)
RNA: GGGAGUUCUACAGUCCGACGAUCGGGAGGGGGGUGAAGGAUCAACCCCUACCCUGCCCAGGUCCUAAUGUUAGCCUGGAGCGUUCAAAGAGCCUGAACAAAAAGGAAGCAAGCCGAACCCGCCCUGCCCUCUCACUCGGCCUGCAACAGAGGAUUGAGCAUCA
B21: 109512259_109512379_85_5pUTR_ENSMUSG00000020612_ENSMUST00000049527|mouse|control|control (ssRNA)
RNA: GGGAGUUCUACAGUCCGACGAUCGGGCGGCGGCACGAGCAGGGGCUAACGCAGGGCGAGGCGGCCGGGGUGACCGAGCGUCCAGCGGGCUCAGCUCGCAGCCUCACUACCACUCUGCGAUAGCGGCUCGGCGACGGCUCCACCCAACAGAGGAUUGAGCAUCA
B22: chr19:582928:582929:+_ENSG00000172270_ENST00000353555|hu_hu|FALSE|FALSE (ssRNA)
RNA: GGGAGUUCUACAGUCCGACGAUCGGGGCCGCAGGGCAGCAGCUCCCGGGCUCUCGUGAAACACUUCAGAAGGAAAAAAACCUAAGGAACAGAAUCCUGAAUGGAGAAAACCCAACUUUUUUAAAAAAGAAGGAAGUGUAUGAUCAACAGAGGAUUGAGCAUCA

The binders below were run against T1, UNK ZnF1-3 (assay: nsRBNS (natural sequence RNA bind-n-seq); RBNS binding buffer (assumed for nsRBNS): 25 mM Tris pH 7.5, 150 mM KCl, 3 mM MgCl2, 0.01% Triton X-100, 500 ug/ml BSA, 20 U/ml SUPERase-In, 4 C; UNK is unkempt and MSI1 is Musashi-1; names of the RNAs are library labels; protein concentration not given here; high values mean tight binding).

Point of comparison: B17, binding signal 0.609 enrichment R. Against it:
- B1 — higher, 1.25 enrichment R
- B2 — lower, 0.525 enrichment R
- B3 — higher, 1.13 enrichment R
- B4 — higher, 0.616 enrichment R
- B5 — higher, 1.02 enrichment R
- B6 — higher, 2.27 enrichment R
- B7 — higher, 1.9 enrichment R
- B8 — higher, 0.724 enrichment R
- B9 — lower, 0.585 enrichment R
- B10 — higher, 1.17 enrichment R
- B11 — higher, 1.29 enrichment R
- B12 — lower, 0.494 enrichment R
- B13 — higher, 1.22 enrichment R
- B14 — higher, 1.08 enrichment R
- B15 — higher, 1.53 enrichment R
- B16 — higher, 1.44 enrichment R
- B18 — lower, 0.57 enrichment R
- B19 — higher, 0.731 enrichment R
- B20 — higher, 0.897 enrichment R
- B21 — lower, 0.408 enrichment R
- B22 — higher, 1.74 enrichment R
